From paper PMC4336329 (PLoS ONE, 2015)
The campaign covered roughly 310,000 compounds. About 2,200 (0.71%) showed an effect of 50% or more. The effect is printed as a negative number. The list shows a part of the results.

biological target: human ether-à-go-go-related gene (hERG) potassium channel (human, UniProt Q12809); assay: primary screen, population patch clamp on CHO cells stably expressing hERG
Sequence (Q12809 whole entry, looked up): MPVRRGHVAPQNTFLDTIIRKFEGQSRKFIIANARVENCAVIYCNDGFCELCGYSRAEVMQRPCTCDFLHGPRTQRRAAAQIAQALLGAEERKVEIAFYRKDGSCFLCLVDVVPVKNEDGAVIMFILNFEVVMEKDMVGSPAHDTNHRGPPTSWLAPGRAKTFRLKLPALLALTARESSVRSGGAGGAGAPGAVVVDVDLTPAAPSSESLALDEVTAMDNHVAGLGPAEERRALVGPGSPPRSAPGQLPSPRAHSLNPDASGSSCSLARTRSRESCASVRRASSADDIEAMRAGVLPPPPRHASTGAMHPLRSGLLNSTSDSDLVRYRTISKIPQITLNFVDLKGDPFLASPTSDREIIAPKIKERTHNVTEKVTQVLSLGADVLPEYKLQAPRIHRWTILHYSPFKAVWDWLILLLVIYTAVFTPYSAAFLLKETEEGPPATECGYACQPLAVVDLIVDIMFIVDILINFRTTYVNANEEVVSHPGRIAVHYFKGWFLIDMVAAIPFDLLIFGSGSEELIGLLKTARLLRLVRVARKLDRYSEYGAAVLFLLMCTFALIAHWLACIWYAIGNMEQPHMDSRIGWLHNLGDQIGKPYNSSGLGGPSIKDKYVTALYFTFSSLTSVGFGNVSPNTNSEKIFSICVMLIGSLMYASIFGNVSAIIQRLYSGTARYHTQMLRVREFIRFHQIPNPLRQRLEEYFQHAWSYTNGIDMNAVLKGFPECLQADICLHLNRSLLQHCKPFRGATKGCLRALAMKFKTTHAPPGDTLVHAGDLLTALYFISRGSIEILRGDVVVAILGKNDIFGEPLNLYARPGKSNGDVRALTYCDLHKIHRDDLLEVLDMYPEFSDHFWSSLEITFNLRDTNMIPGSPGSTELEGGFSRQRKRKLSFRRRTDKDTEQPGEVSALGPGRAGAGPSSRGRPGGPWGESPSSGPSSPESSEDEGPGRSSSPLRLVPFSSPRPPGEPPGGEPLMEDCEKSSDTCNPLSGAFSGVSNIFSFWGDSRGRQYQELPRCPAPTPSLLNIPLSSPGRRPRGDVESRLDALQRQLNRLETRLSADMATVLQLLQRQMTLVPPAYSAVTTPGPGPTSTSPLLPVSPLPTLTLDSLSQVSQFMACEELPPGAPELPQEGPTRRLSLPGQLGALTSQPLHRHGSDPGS

| SMILES | hERG current change (%, negative = inhibition) at 1uM |
| --- | --- |
| Cc1ccc(C(=O)C(NC(=O)c2ccco2)N2CCOCC2)cc1 (stereo not shown) | 13.1% |
| Cc1nc2ccccc2c(=O)n1NS(C)(=O)=O | 11.5% |
| O=S(=O)(NC1=NCCC1)c1cccc(NS(=O)(=O)c2ccc(OC(F)(F)F)cc2)c1 | 7.7% |
| O=C(Nc1ccccc1OC(F)F)c1ccc(S(=O)(=O)N2CCCC2)cc1 | 9.59% |
| CCOc1cc(CNCc2ccncc2)cc(Cl)c1OC.Cl | 20.1% |
| COc1cc(Cl)c(C)cc1NC(=O)c1cc(S(=O)(=O)N(C)C)ccc1N1CCCC1 | 6.5% |
| O=C(N/N=C/c1ccc2c(c1)OCO2)C(=O)Nc1ccc2ccccc2c1 | 5.56% |
| COc1ccc(CNC(=O)Nc2ccc(C)c(C)c2)cc1 | 9.9% |
| Nc1nnc(-c2ccccc2)c(-c2ccccc2)n1 | 3.06% |
| CCc1nc2c(c(=O)[nH]1)C1(CCCC1)Cc1ccccc1-2 | 15.1% |
| CCN1Cc2c(/C=C/c3ccccc3)nc3ccc(OC)cc3c2N(c2cccc(Cl)c2)C1 | 12% |
| CCC(C)c1c(O)nc(SCC(=O)Nc2ccccc2)[nH]c1=O (stereo not shown) | 13% |
| Clc1ccc(-c2cnn3c(-c4ccncc4)ccnc23)cc1 | 1.39% |
| O=C(CCN1CCCCO1)N1CCCC(Nc2ccc(F)c(F)c2)C1 (stereo not shown) | 3.72% |
| CCOC(=O)C1CCCCN1C(=O)c1oc2c(Cl)cc(C)cc2c1C (stereo not shown) | 14.2% |
| COc1ccc(C(=O)COC(=O)CCCn2c(=O)oc3ccccc32)cc1 | -11.2% |
| O=C(CN1CCC(O)(c2cccc(F)c2)CC1)NCCc1c[nH]c2ccccc12 | 1.69% |
| CCOc1ccc(CCNC(=O)COC(=O)c2cccnc2SC)cc1OCC | 1.62% |
| CN(CC(=O)Nc1ccc(N2CCOCC2)cc1)C(=O)CCCOc1ccc(Cl)cc1Cl | 8.61% |
| CC(=O)c1sc(NC(=O)c2cccnc2Cl)nc1C | -1.52% |
| O=C(O)CCC(=O)OCc1c(-c2ccccc2)ncc2ccccc12 | 13.8% |
| CC(C)NC[C@H](O)COc1ccc(CC(N)=O)cc1 | 14.6% |

| SMILES | hERG current change (%, negative = inhibition) at 1uM |
| --- | --- |
| Cc1cc(Br)ccc1NC(=O)CNC(=O)Cc1ccc(S(=O)(=O)N2CCOCC2)s1 | -8.88% |
| CCC(=NCCCN(C)C)c1c(O)n(-c2ccc(OC)cc2)c(=O)[nH]c1=O | 2.1% |
| N#Cc1cnc(SCC(=O)c2ccccc2)nc1N | 2.71% |
| O=C(Nc1nccs1)c1ccc(COc2ccc(F)cc2)o1 | 5.48% |
| CCc1cccc(CC)c1NC(=O)COC(=O)c1ccc(F)c(S(=O)(=O)N(CC)CC)c1 | -1.06% |
| COc1ccc(-n2c(=S)[nH]c3cc(C(=O)NCCCN4CCOCC4)ccc3c2=O)c(OC)c1.Cl | 7.69% |
| COC(=O)C1CCN(C2=C(NS(=O)(=O)c3ccc(Cl)cc3)C(=O)c3ccccc3C2=O)CC1 | 2.44% |
| O=C(CS(=O)(=O)c1cn(CC(=O)N2CCOCC2)c2ccccc12)NCc1ccccc1 | 10.6% |
| COc1ccc(-c2nc(N)ncc2-c2ccc(OC)c(OC)c2)c(O)c1 | 3.87% |
| CN(C)c1ccc(/C=C2\SC(=O)N(CC(O)Cn3c4ccccc4c4ccccc43)C2=O)cc1 (stereo not shown) | 10.1% |
| Cc1ccccc1NCCC(=O)Nc1ccc(F)cc1 | 4.12% |
| CCCNC(=O)C1CCN(S(=O)(=O)c2ccc3[nH]c(=O)ccc3c2)CC1 | 11.4% |
| O=S(=O)(c1ccc2c(c1)OCCCO2)N1CCNCC1 | 4.19% |
| Cc1cccc(N2C(=O)CC(N3CCC(c4nc5ccccc5[nH]4)CC3)C2=O)c1 (stereo not shown) | 7.14% |
| COc1ccc([C@H]2/C=C\CN(S(C)(=O)=O)[C@@H](C)C(=O)N2Cc2ccc(F)cc2)cc1 | 6.06% |
| Cn1c(=O)c2ccccc2n(Cc2cccc(F)c2)c1=O | 12.1% |
| CCn1ncc(CN2CCCC(C(=O)c3cccc(OC(C)C)c3)C2)c1C (stereo not shown) | 8.61% |
| COc1ccc(C2c3c(oc4ccccc4c3=O)C(=O)N2CCCN2CCOCC2)cc1 (stereo not shown) | 7.58% |
| CCOc1ccc(OCC(O)CN2CCc3ccccc3C2)cc1.Cl (stereo not shown) | -45.1% |
| CC1=NN(C(=O)c2c(Br)cnn2C)C(O)(C(F)(F)F)C1 (stereo not shown) | 0.959% |
| Cc1ccc(Sc2nc(-c3ccccc3)nnc2C(F)(F)F)cc1 | 11.8% |
